According to article PMC6212790:
Some of the results follow. At the low end of the ranking the order means little.

target: T1, GST-Rok (full length) (UniProt O34857); test: protein binding microarray; conditions: Rok is a gene silencer of Bacillus subtilis; high values mean tight binding; most listed sequences are background and not binding sites; double strand, one strand shown;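 also: rank score from −0.5 (least bound) to 0.5 (best bound)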
T1 sequence: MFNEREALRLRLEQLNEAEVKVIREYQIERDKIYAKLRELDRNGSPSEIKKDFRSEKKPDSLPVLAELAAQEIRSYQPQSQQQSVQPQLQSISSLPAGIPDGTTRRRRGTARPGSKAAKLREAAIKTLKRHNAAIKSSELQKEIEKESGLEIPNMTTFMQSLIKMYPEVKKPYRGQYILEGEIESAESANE

Sequence	binding signal [E-score]
ATGGGCCC	-0.273
CTTCTAAA	-0.00526
GACAGAGC	-0.145
ATTCGAAC	0.223
AAGGCGCA	-0.234
ACCTGTAA	-0.0623
CCGCGTCC	-0.336
GCCGGAAC	-0.198
GCACGCGC	-0.178
AGTGCAGA	-0.148
AGTACGGC	0.0681
ACGGAAAC	-0.0398
AGAATACT	0.271
GGCTGTCA	-0.237
GGGCTGCA	-0.287
CCTCAGGC	-0.359
GCCCCGCC	-0.407
ATGCATCA	0.144
CAAATGCA	-0.0824
AGGACGAT	-0.175
GGCCTCAC	-0.29
ATCTGGTA	0.107
CGGTCGCC	-0.339
AGATGTTC	0.114
ACCAGTAC	0.149

Sequence	binding signal [E-score]
ATGCCATC	-0.13
AGTTTCAT	0.217
CGTCGTCC	-0.195
AAAGGCAA	-0.148
TCTGTACA	0.0326
CATATAGC	0.125
ACGAACGC	-0.081
ATTGGGGA	-0.141
AGTCTACC	-0.00746
AACAAAGA	0.174
CAGCCCAA	-0.236
CCGCCCTA	-0.212
GAGCACTC	-0.0337
GGCCTCTA	-0.222
AATCCGCT	-0.000445
AACATAGA	0.206
ACAGGAAC	-0.0229
TCCTTAGA	0.0193
CAGTGCTC	-0.394
ATCATTCC	0.111
GGCTCGGA	-0.455
GGCGAATA	-0.0656
GCTGACCA	-0.135
GTCGTGTA	0.126
ATAAGAAC	0.0811

Sequence	binding signal [E-score]
TCGCGGCA	-0.187
TCTAGTCA	0.183
AGGATTAC	-0.0868
AAGGCTCC	-0.234
CGAACGTA	0.0863
TATGATAA	0.267
GCATAGCA	-0.0988
ATAAATAT	0.339
GCACGGCA	-0.074
GGAATGCA	-0.274
CAAATAGC	0.209
TAAGCGCA	-0.154
AGCGGATA	0.286
ACGCGGTG	-0.342
TACCAACA	-0.000134
AATAATAG	0.388
GTGGAGTA	0.107
TGCCTTAA	-0.122
AGAAGCCC	-0.321
CTCCCGAG	-0.27
AGGCGTTC	-0.262
AAAAGTTT	0.0316
CCTGAGGC	-0.253
CCCAATTA	-0.0953
TCCCAGGA	0.00729

Sequence	binding signal [E-score]
ACACTTCT	0.218
GTTAGCGA	-0.0108
ATAGCGAA	0.216
AGCGGGTA	-0.098
CTGGTCCA	-0.166
ATACGGAA	0.156
AATAATAA	0.364
GATCCCGC	0.00157
CATAGTCA	0.0308
GGCGTGAC	-0.163
AGGGGTAC	-0.221
ACTTCGTA	0.218
GAAAAACA	0.0387
AGAGACCT	-0.154
CTCGAGAC	0.0177
AGTGTTTG	0.11
AACTGCGT	-0.11
ATAGAACC	0.202
AAAGGATT	-0.227
CTTGTATC	0.0396
AGTTTATC	0.209
CAAGCCCG	-0.236
ATTGTATC	0.266
GTGGCACA	-0.204
ACGCTGGA	-0.115

Sequence	binding signal [E-score]
GCGATACC	0.0255
GTGACCAA	-0.121
AGAACACT	0.0519
AATTTACA	0.305
CATGCGTA	-0.0764
AGACATCA	0.0172
GGACGCCC	-0.466
ACTGTCCA	0.0579
GATATTAA	0.365
GGATATAA	0.271
AAGCCCAA	-0.205
CTGTGTCA	-0.136
ACCGGAGT	-0.202
CGGTCACG	0.0659
ACCTATTC	0.0385
CCGGTCCG	-0.0631
CGTACGAC	-0.082
ACCGGTCG	-0.168
TAGTCTAA	0.089
CTGTACTA	0.112
TACCCCCA	-0.318
AGTCCTTG	-0.0751
AAAAGGCC	-0.0791
TTCAAGAA	-0.0452
GCAGCGCC	-0.314

Sequence	binding signal [E-score]
ACCTGCTC	-0.309
CGTACAGA	0.152
GGATGTGA	0.0951
ACCTCGTC	-0.19
CTGTGCAC	0.0294
ACTGTGTA	0.128
CGGCGTTC	-0.211
GCAGTGCA	-0.00341
CGATGTCA	0.0419
GTAATCGA	-0.031
CCATACGA	-0.0347
CAATCCCG	-0.105
GACTTTCA	-0.125
TCGTACGA	-0.131
GGTCCTGA	-0.195
CAATACGA	0.00373
GGCGCACC	-0.349
TGTTATAA	0.228
GAATGCGC	-0.159
AGGAAAAA	-0.0677
GCATGATA	0.164
GATCACGA	-0.0641
AAGCATAT	-0.0351
ATGCGAAC	-0.0522
CCAAATGC	0.122

Sequence	binding signal [E-score]
CCCTGCCG	-0.343
AAAGACAC	-0.0588
AATAGCGC	0.0664
CTCCTGGC	-0.275
CAATCCGG	-0.187
ACCCGTTG	-0.214
AGCCCCCC	-0.429
ACACCGAG	-0.0983
GTCAGTAA	0.00175
AAATATTG	0.295
CGACCCTC	-0.225
AACCGAAG	0.0965
CGGAAGGA	-0.314
CGCCATAA	0.0158
GCACGCAA	-0.218
AAGGAGCC	-0.383
AGCTGACG	-0.224
CTGTGGTC	-0.242
CGACAGCA	-0.204
CAGAAGTC	-0.0731
AACACGAC	-0.0443
AACACCGA	-0.0684
